Data taken from PubChem BioAssay AID1347417 (National Center for Advancing Translational Sciences (NCATS), 2020).
About 5,300 (4.4%) of roughly 120,000 compounds were called active. Inconclusive results, whose numbers are uncertain, are shown with a selection of clear calls. The call rests on the fitted dose curve; in most records, active means well fitted inhibition curve with a large enough effect; inconclusive means small, poorly fitted or top-dose-only effect; inactive means no such curve, though single readings can be large or run the other way. Potencies of inconclusive entries are doubtful fits and often do not repeat.

Experiment: qHTS Primary assay for Inhibitors of Plasmodium falciparum Dd2 growth in vitro; further: nearly all actives have a fitted effect of over 65% in size
Details: P. falciparum Dd2 growth, SYBR Green, 72 h; series mostly up to 28.9 µM
Method in brief: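 Infected erythrocytes (Dd2, 0.3% parasitemia, 2.5% hematocrit final) are added to compound in RPMI-1640/Albumax II medium, grown 72 h at 37C in low oxygen, then lysed with saponin/Triton-X containing SYBR Green and read by fluorescence.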
Potency means the concentration at half of the fitted maximal effect; tags describe the fitted curve by direction and shape.

**Q.** For `O=C(CSc1c2c(nc3cc(Cl)ccc13)CCCC2)NCc1ccccc1Cl`, which Potency is on record?
**A.** inconclusive: 11.2 µM [inhibitor, single point]

**Q.** Which Potency does the source give for `O=C(NC1CC(c2nnc(CO)n2C2CC2)C1)c1nc2ccccc2[nH]1` (configuration not stated) here?
**A.** inconclusive: 15.8 µM [inhibitor, partial curve, poor fit]

**Q.** With `Cc1ccc(NC(=O)C2CCN(S(=O)(=O)c3cc(-c4noc(C)n4)ccc3C)CC2)c(C)c1` as the compound, how does the Potency read?
**A.** inconclusive: 20 µM [inhibitor, single point]

**Q.** For `Cc1ccsc1[C@@H]1CCN(Cc2cccn2-c2cccnc2)C[C@H]1O`, which Potency is on record?
**A.** inconclusive: 12.6 µM [inhibitor, single point]

**Q.** With `COc1cc([C@@H]2c3cc4c(cc3[C@H](O)[C@@H](CO)[C@@H]2C(=O)NCC(C)C)OCO4)cc(OC)c1OC` as the compound, how does the Potency read?
**A.** inactive

**Q.** Which Potency does the source give for `COC[C@@H]1CN(Cc2cccc(C#N)c2)C[C@H]1c1ccncc1` here?
**A.** inconclusive: 10 µM [inhibitor, single point]

**Q.** Which Potency does the source give for `COc1ccc(CN2C(=O)[C@@H]3C[C@@H](CN3C3CCCC3)Oc3ccccc32)cc1` here?
**A.** active: 10 µM

**Q.** With `O=C1Nc2ccccc2CC12CCN2[S+](=O)([O-])c1cccs1` (configuration not stated) as the compound, how does the Potency read?
**A.** inconclusive: 31.6 µM [inhibitor, single point]

**Q.** Which Potency does the source give for `O=C(Nc1cccc(NC(=O)c2ccccc2Cl)c1)c1cccc(Br)c1` here?
**A.** inconclusive: 17.8 µM [inhibitor, single point]

**Q.** For `O=C1NCCOCCN(S(=O)(=O)c2cccs2)[C@H]2CCC[C@@H]12`, which Potency is on record?
**A.** inactive

**Q.** With `COc1ccc(-c2nc(CN3C(=O)CN=C(c4ccccc4Cl)c4cc(Cl)ccc43)c(C)o2)cc1OC` as the compound, how does the Potency read?
**A.** active: 12.6 µM

**Q.** With `COCC(=O)NC[C@H]1CCN(Cc2ccc(F)c(OC)c2)C[C@H]1N(C)C` as the compound, how does the Potency read?
**A.** inconclusive: 3.98 µM [inhibitor, single point]

**Q.** With `Cc1ccccc1CN1CC[C@H](c2nc3ncccc3[nH]2)C1` as the compound, how does the Potency read?
**A.** active: 31.6 µM

**Q.** For `CCCCN1C(=O)c2ccccc2C(C(=O)Nc2cccc(NC(C)=O)c2)C12CCCC2` (configuration not stated), which Potency is on record?
**A.** inconclusive: 5.62 µM [inhibitor, partial curve, poor fit]

**Q.** With `Cc1ccc(NC(=O)CSc2nc(=O)cc(N)n2CCc2ccccc2)cc1` as the compound, how does the Potency read?
**A.** inconclusive: 10 µM [inhibitor, single point]

**Q.** Which Potency does the source give for `COc1cc2c(cc1OCc1ccccc1)NC(=O)C21CCN(Cc2ccccn2)CC1` here?
**A.** inconclusive: 2.82 µM [inhibitor, single point]

**Q.** With `COc1ccc(C2(C(=O)N3CCC4(CC3)C(OC)CN4c3cccc(F)c3)CC2)cc1` (configuration not stated) as the compound, how does the Potency read?
**A.** inconclusive: 12.6 µM [inhibitor, single point]
